Data as given in paper PMC4336329 (PLoS ONE, 2015).
Among all 310,000 compounds or so, about 2,200 (0.71%) showed an effect of 50% or more. Effects have a minus sign here. This is one part of the list.

target: human ether-à-go-go-related gene (hERG) potassium channel (human, UniProt Q12809); assay: primary screen, population patch clamp on CHO cells stably expressing hERG
Sequence (Q12809 whole entry, looked up): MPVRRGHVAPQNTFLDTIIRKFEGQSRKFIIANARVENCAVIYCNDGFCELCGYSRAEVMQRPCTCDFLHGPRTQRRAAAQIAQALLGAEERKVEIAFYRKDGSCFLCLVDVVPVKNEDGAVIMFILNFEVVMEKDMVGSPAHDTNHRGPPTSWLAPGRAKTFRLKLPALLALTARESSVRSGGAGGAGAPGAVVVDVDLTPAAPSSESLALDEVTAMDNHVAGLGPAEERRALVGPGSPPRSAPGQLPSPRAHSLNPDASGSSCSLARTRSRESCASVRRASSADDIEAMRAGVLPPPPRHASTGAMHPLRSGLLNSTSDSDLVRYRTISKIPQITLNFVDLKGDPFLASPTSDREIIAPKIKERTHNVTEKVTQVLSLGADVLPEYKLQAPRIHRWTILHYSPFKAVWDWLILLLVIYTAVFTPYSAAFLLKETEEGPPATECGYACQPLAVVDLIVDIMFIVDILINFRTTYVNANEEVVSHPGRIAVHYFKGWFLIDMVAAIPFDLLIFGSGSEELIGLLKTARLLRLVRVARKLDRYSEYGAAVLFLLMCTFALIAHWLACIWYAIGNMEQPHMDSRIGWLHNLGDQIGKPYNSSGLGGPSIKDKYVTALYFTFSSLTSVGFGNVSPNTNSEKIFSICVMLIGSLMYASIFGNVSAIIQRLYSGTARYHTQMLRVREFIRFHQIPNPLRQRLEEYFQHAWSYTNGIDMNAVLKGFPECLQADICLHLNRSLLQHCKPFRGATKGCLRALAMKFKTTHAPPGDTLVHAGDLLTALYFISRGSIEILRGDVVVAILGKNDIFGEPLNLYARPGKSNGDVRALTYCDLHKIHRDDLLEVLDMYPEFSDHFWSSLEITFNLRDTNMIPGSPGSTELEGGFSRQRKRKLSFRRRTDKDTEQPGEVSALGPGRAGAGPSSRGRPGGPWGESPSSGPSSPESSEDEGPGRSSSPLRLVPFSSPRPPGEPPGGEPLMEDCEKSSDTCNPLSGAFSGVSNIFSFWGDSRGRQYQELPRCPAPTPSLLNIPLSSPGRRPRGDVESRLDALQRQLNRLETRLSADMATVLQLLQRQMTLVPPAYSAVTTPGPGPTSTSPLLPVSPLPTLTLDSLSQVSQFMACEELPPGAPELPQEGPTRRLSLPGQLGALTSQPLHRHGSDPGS

Row | Structure (SMILES) | hERG current change (%, negative = inhibition) at 1uM
1 | N#Cc1c(C(F)(F)F)cc(-c2ccccc2)nc1SCC(=O)Nc1sc2c(c1C#N)CCC2 | 11.2%
2 | COCCCN1C(=O)C(=O)/C(=C(/O)c2ccc3c(c2)CC(C)O3)C1c1cccnc1 (stereo not shown) | 6.13%
3 | Cc1cccc(NC(=O)CCNC(=O)c2ccc(Br)cc2)c1C | 14.6%
4 | CN(C(=O)c1ccc2c(c1)C(=O)N(CCC1=CCCCC1)C2=O)C1CCCCC1 | 13.1%
5 | CCOC(=O)N/N=C\c1ccc([N+](=O)[O-])s1 | 11.6%
6 | CC(=O)N/C(=C\c1ccccc1)C(=O)OCC(=O)c1ccccc1 | 10.8%
7 | CCN(CC)CCCN1C(=O)C(=O)/C(=C(/O)c2ccc(OC)cc2)C1c1ccco1 (stereo not shown) | 9.12%
8 | Cc1ccc(C(=O)N/C(=C/c2cccs2)C(=O)NCC2CCCO2)cc1 (stereo not shown) | 8.14%
9 | COc1ccc(C(=O)C(CO)Oc2ccccc2OC)cc1OC (stereo not shown) | 10%
10 | Cc1ccc(C)c(CN2CCCN(Cc3cc(C)ccc3C)S2(=O)=O)c1 | 18.9%
11 | CN(CC(=O)Nc1ccccc1-c1ccccc1)Cc1ccccc1Cl | 10.3%
12 | CCCn1nnnc1SCC(=O)NCc1ccccc1 | 6.38%
13 | COc1cccc(C(=O)NCC2CCN(c3ccc(S(=O)(=O)N4CCOCC4)cc3)CC2)c1 | 0.663%
14 | COc1ccc(CNC(=O)[C@]2(C)CCC[C@@]3(C)C4CC[C@@]5(C)C[C@]4(CCC32)CC5=O)cc1 (stereo partly shown) | 13%
15 | O=C(c1ccc2nc(N3CCCCC3)sc2c1)N1CCN(c2ccccn2)CC1 | 3.02%
16 | CC1Cc2ccccc2N1C(=S)Nc1cccc(S(=O)(=O)N(C)C)c1 (stereo not shown) | 9.2%
17 | S=c1nc(-c2ccccc2)n(-c2ccccc2)[nH]1 | 12.1%
18 | CSc1ccc(/C=N/NC(=O)c2cccs2)cc1 | 13.4%
19 | O=C(OCc1ccc([N+](=O)[O-])cc1)c1cnc(Cl)c(Cl)c1 | 20.7%
20 | CCCOc1ccc(C(=O)c2nc3c(n2O)CCCC3)cc1 | 18.1%
21 | O=C(CSc1nnc(SCc2ccc(Cl)cc2)s1)N/N=C/c1ccccc1Cl | -4.67%
22 | O=C(NCCCN1CCCC1=O)c1ccc(S(=O)(=O)Nc2cccc(C(F)(F)F)c2)cc1 | 16.6%
23 | COc1ccc(C(=O)NCC(c2ccco2)N2CCc3ccccc32)cc1OC (stereo not shown) | -3.98%

Row | Structure (SMILES) | hERG current change (%, negative = inhibition) at 1uM
24 | COc1ccccc1NC(=O)NNC(=O)C(C)Oc1ccc2ccccc2c1 (stereo not shown) | 9.82%
25 | N#C/C(=N/Nc1ccc(OC(F)(F)F)cc1)C(N)=S | 1.06%
26 | Cc1cc(=O)[nH]c(SCC(N)=O)c1C#N | 7.82%
27 | O=C(Cn1nnc2ccccc21)N/N=C/c1ccco1 | -5.84%
28 | O=C1/C(=C/c2cccc(F)c2)SC(=S)N1NS(=O)(=O)c1ccccc1 | 6.67%
29 | COc1ccc(NS(=O)(=O)CC23CCC(CC2=O)C3(C)C)cc1 (stereo not shown) | -0.524%
30 | Cn1c(=NC(=O)CSCC(=O)N2CCOCC2)sc2ccccc21 | 10.9%
31 | O=C(Nc1nc2ccccc2[nH]1)c1cccc(F)c1 | 28.3%
32 | Cc1ccc(OCCCC(=O)Nc2ccccc2C(F)(F)F)cc1 | 9.07%
33 | CN(Cc1ccccc1)c1nc2c(c(=O)[nH]c(=O)n2C)n1Cc1ccccc1F | 17.4%
34 | CCCN(CC1CC1)S(=O)(=O)c1ccc(-n2cnnn2)c(OC)c1 | -9.37%
35 | O=c1c2c3c(sc2nc2n1N=C(c1cccs1)CS2)CCCC3 | 8.43%
36 | COCCn1nnnc1C(C(C)C)N(Cc1cccnc1)Cc1cc2cc(OC)ccc2[nH]c1=O (stereo not shown) | -3.47%
37 | Cc1cccc(OCCN2CCOCC2)c1C | 10.8%
38 | Cc1ccc(N2CC(C(=O)O)CC2=O)cc1 (stereo not shown) | 14.4%
39 | Cc1cc2oc(=O)cc(C)c2c(=O)o1 | -1.68%
40 | COc1ccc(-n2nc(C(=O)N3CCN(Cc4ccc5c(c4)OCO5)CC3)c3ccccc3c2=O)cc1 | 5.38%
41 | O=S(=O)(NCc1ccccc1)c1ccc(Cl)c(S(=O)(=O)NCc2ccccc2)c1 | -0.731%
42 | CCOC(=O)c1sc(=NC(=O)/C=C/c2ccccc2)n(C)c1C | 5.68%
43 | CN1CCN(C(=O)/C=C/c2ccc(Cl)c(Cl)c2)CC1 | 1.42%
44 | O=C(CCN1C(=O)/C(=C/c2ccccc2F)SC1=S)NCCCn1ccnc1 | -0.644%
45 | Cl.N#Cc1cccc(C(c2nnnn2Cc2ccccc2)N2CCCC2)c1 (stereo not shown) | -3.7%
46 | Cc1ccccc1NC(=O)COC(=O)c1c(-c2ccccc2)noc1C | 6.78%

Row | Structure (SMILES) | hERG current change (%, negative = inhibition) at 1uM
47 | CCOC(=O)c1cccc(NC(=O)c2cnccn2)c1 | 5.67%
48 | O=C(Cn1ncc2c([nH]c3ccccc32)c1=O)NCCc1ccc(Cl)cc1 | 17.1%
49 | CCNC(=S)Nc1ccc2c(c1)oc1ccccc12 | 2.76%
50 | CCOc1ccc(S(=O)(=O)N2CCCCC2)cc1NC(=O)Cc1ccsc1 | 14.7%
51 | CCC(CC)CN1CCN=C1N(C)C | -0.425%
52 | Cc1ccc(-n2ncc3c(NCCCOC(C)C)ncnc32)c(C)c1 | 4.85%
53 | CCOc1ccc(CN2CCN(Cc3cc4c(cc3Cl)OCO4)CC2CCO)cc1 (stereo not shown) | -62.9%
54 | COC(=O)CN1C(=O)Nc2ccc(C)cc2C1c1ccccc1 (stereo not shown) | 10.6%
55 | COc1ccc(NC(=O)CN(C)C(=O)C2=COCCO2)cc1 | 10.1%
56 | O=C(Nc1ccc(F)cc1)c1ccc2ncsc2c1 | 16.4%
57 | COc1ccc(/C=C2\SC(=O)N(CCC(=O)N3CCN(C)CC3)C2=O)cc1 | 5.86%
58 | CCN(Cc1ccccc1)CC(O)COc1ccccc1.Cl (stereo not shown) | -4.33%
59 | COc1ccc(-c2ccccc2)c2oc(-c3ccco3)cc(=O)c12 | 19.9%
60 | Nc1c(C(=O)NCc2ccccc2)nnn1Cc1ccc(F)cc1 | 15.9%
61 | Nc1ncnc2nc(N3CCN(C(=O)c4ccccc4)CC3)[nH]c12 | 11.9%
62 | Cc1cc(Br)ccc1NC(=O)CN(C)Cc1cccs1 | 14.8%
63 | Cc1nn(C(C)C(=O)N2CCc3ccccc32)c(C)c1[N+](=O)[O-] (stereo not shown) | 15.3%
64 | C=CCn1c(COc2cccc(C)c2)nnc1SCn1nnc2ccccc2c1=O | 6.15%
65 | COCc1cc(C)nc(SCC(=O)Oc2ccc(Cl)cc2)c1C#N | 7.76%
66 | O=C(NCc1ccccc1)c1ccc2nccnc2c1 | 15.8%
67 | COC(=O)c1ccccc1NS(=O)(=O)c1ccc(F)cc1 | -8.65%
68 | CCCNC(=O)N1CCC(c2nc3ccccc3s2)CC1 | 5.38%
69 | CC(=O)Nc1ccc(NC(=O)C(C)Sc2nnc(C3CC3)n2-c2ccccc2)cc1 (stereo not shown) | 11.9%

Row | Structure (SMILES) | hERG current change (%, negative = inhibition) at 1uM
70 | O=C(NN=C1CCCCCCCCCCC1)c1ccccc1F | 9.84%
71 | COCCn1c(SCC(=O)N(C)C2CCS(=O)(=O)C2)nc2ccccc2c1=O (stereo not shown) | 4.99%
72 | COc1ccc(CC(=O)N/N=C(/C)CC(=O)N(C)c2ccccc2)cc1 | 13.4%
73 | CCOC(=O)C1CCCN(c2cc(=O)n(C3CCCCC3)c(=O)[nH]2)C1 (stereo not shown) | -3.71%
74 | CN(C(=O)CSc1ncnc2ccccc12)C1CCS(=O)(=O)C1 (stereo not shown) | 3.18%
75 | COc1ccc(C(=O)O)cc1S(=O)(=O)Nc1cccc(C)c1 | -1.21%
76 | O=C(CN1C(=O)C2CC=CCC2C1=O)Nc1ccccc1N1CCCC1 (stereo not shown) | 7.44%
77 | O=C(CP(=O)(c1ccccc1)c1ccccc1)N/N=C/c1cc(Br)cc(Br)c1O | 19.8%
78 | CC(=O)Nc1ccc(/C=N/NC(=O)c2cc3ccccc3nc2C)cc1 | 9.08%
79 | COCCn1c(=S)[nH]c2sc3c(c2c1=O)CCCC3 | 14.9%
80 | COc1cccc(NC(=O)COC(=O)c2ccc(S(=O)(=O)NCc3ccco3)cc2)c1 | -8.17%
81 | CCCCc1nc2cc(C(=O)N3CCCCC3COC)ccc2o1 (stereo not shown) | -3.03%
82 | COCCNC(=O)C(c1ccc(F)cc1)N(C(=O)CCC(=O)Nc1ccccn1)c1ccc(C)cc1 (stereo not shown) | 10.4%
83 | CCc1cc(C(=O)NNC(=O)CCl)sc1C | 3.78%
84 | CC1CC(C)CN(C(=O)C2CCN(C(=O)Nc3ccccc3)CC2)C1 (stereo not shown) | 20.2%
85 | N#CC1=C(N)OC2=C(C(=O)CCC2)C12CCC1(CC2)OCCO1 | 11.9%
86 | CC(C)c1ccc(N=C2NN=C(c3cccs3)CS2)cc1 | 1.42%
87 | COc1ccc(-c2cc(C(F)(F)F)nc(SCCC(=O)NCc3ccco3)n2)cc1 | 7.01%
88 | O=c1ccc2cc(S(=O)(=O)N3CCN(c4ccccc4F)CC3)ccc2o1 | 4.92%
89 | Cn1c(SCC(=O)N2CCCCC2)nc2c(c1=O)SCC2 | 14%
90 | CC(C)(C)NC(=O)NC(=O)CSc1ncccn1 | 19.5%
91 | CCCc1cc(C(=O)NCc2ccco2)no1 | 7.66%
